The values below come from the RNAGym collection of RNA variant scans (doi:10.7554/elife.90254).

The chains are these.
B1: LINE1-full (parent)
chain: UACGUAGGUGGUUUUCCCCUGAUAGUGCUAAGGGGGCCUGGAAGUUUGGACUGGGCAGAGCUCAACACAGCGUGGCAAAGUGGCUGUGGCUAGACUGCCUCUCUGGAUUCCUCGUCACUCAGCAGGGCAUCUCUGAGAGAAAUGCC

Read counts are not given, so values of variants with three or more changes are uncertain.

The variants in this series derive from B1. Briefly: self-cleavage, relative activity (ratio to wild type); higher = more cleavage; in vitro, sequencing; the parent is a self-cleaving ribozyme.
Turning to UACGUAGGUGGUCUUCCCCUGAUAGUGCUAAGGGGGCCCGGAAGUUUGGACUGGGCAGAGCUCAACACGGCGUGGCAAAGUGGCUGUGGCUAGACUGCCUCUCUGGAUUCCUCGUCACUCAGCAGGGCAUCUCUGAGAGAAAUGUC, the self-cleavage came to 0.
For the variant UGCGUAGGUGGUUUUCCCCUGAUAGUGCUAAGGGGGCCAGGAAGUCUGGACUGGGCAGAGCUCAACACAGCGUGGCAAAGUGGCUGUGGCUAGACUGUCUCUCUGGAUUCCUCGUCACUCAGCAGGGCAUCUCUGAGAGAAAUCCC, the self-cleavage came to 0.46.
To UACGUAGGUGGUUUUCCCCUGAUAGUGCUAAGGGGGCCUGGAAGUUUGGACUGGGCAGAGCUCGACACAGCGUGGCAAAGUGGCUGUGGCUAGACUGCCUCCCUGGAUUCCUCGUCAUUCAGCGGGGCAUCUCUGAGAGAAAUGCC belongs 0.36.
Under UACGGAGGUGGUUCUCCCCUGAUAGUGCUAAGGGGGCCUGGAAGUUUGGACUGGACAGAGCUCAACACAGCGUGGCAAAGUGGCUGUGGCUAGACUGCCCCUCUGGAUUCCUCGUCGCUCAGCUGGGCAUCUCUGAGAGAAAUGCC stands 0; under UACGUAGGCGGUUUUCCCCUGAUAGUGCUAAGGGGGCCUGGAAGUUUGGACGGGGCAGAGCUCAACACAGCGUGGCAAAGUGGCUGUGGCUAGACUGCCUCUAUGGAUUCCUCGUCACUCAGCAGGGCAUCUCUGAGAGAAAGGCC, 0.84.
For UACGCAGGUGGUUUUCCCCUGAUAGUGCUAAGGGGGCCUGGAAGUUUGGACUGGGCAGAGCUCAGCACAGCGUGGCAAAGUGGCUGUGGCUAGACUGCCUCUCUGGAUUCCUUGUCACUCAGCAGGGCAUCUCUGAGAGGAAUGCC, the self-cleavage is 0.09.
For the variant UACGCAGGUGGUUUUCCCCUGAUAGUGCUAAGGGGGCCUGGAAGCUUGGUCUGGGCAGAGCUCAACACAGCGUGGCAAAGUGGCUGUGGCUAGACUGCCUCUCUGGACUCCUCGACACUCAGCAGGGCAUCUCUGAGAGAAAUGCC, the self-cleavage amounted to 0.
As to UACGUAGGUGGUUUUCCCCUGAUAGUGCUAAGGGGGCCUGGAAGUUUGGGCUGGGCAGAGCUCAACACAGCGUGGCAGAGUGGCUGUGGCUAGACUGCCUCUCUGGAUUCCUCGUCACUCUGCAGGGCAUCUCAGGGAGAAAUGCC, the self-cleavage was 0.47.
To UACGUAGGUGGUUUUCCCCUGAUAGUGCUAAGGGGGCCUGGAAGUCUGGACUGGGCUGAGCUCAACACAGCGUGGCAAAGUGGCUGUGACUAGACUGCCUCUCUGGAUUCCUCGUCACUCAGCAGGGCAUCUCUGAGAGAAAUGCC belongs 0.02.
Under UACGUAGGUGGCUUUCCCCUGAUAGUGCUAAGGGGGCCUAGGAGUUUGGACUGGGCAGAGCUCAACGCAGCGUGGCAAAGUGGCUGUGGCUAGACUGCCUCUCUGGACUCCUCGUCACUCAGCAGGGCAUCUCUGAGAGAAAUGCC stands 0.81.
To UACGUAGGUGGUUUUCCCCUGAUAGUGCAAAGGGGGCCUGGAAGUCUGGACUGGGCAGAGCCCAACACAGCGUGGCAAAGUGGCUGUGGCUAGACUGCAUCUCUGGAUUCCUCGUCACUCAGCAGGGCAUCUCUGAGAGAAAUGCC belongs 0.13.
As for UACGUAGGUGGUUUUCCCCUGAUAGUGCUAAGGGGGCCUGGAGGUUUGGACUGGGCAGAGCUCAACACAGUGUGGCAAAGUGGCUGUGGCUAGACUGCCUCACUGGAUUCCUCGUCACUCAGCAGGGCAUCCCUGAGAGAAAUGCC, the self-cleavage stood at 0.34.
Under UACGUAGGUGGUUUUCCCCUGACAGUGCUAAGGGGGCCUGGAAGUUUGGACUGGGCAGAGCUCAACACAGUGUGGCAAAGUGGCUGUGGCUAGACUGCCUCUCUGGUUUCCUCGUCACUCGGCAGGGCAUCUCUGAGAGAAAUGCC stands 0.93.
To UACGUAGGUGGUUUUCCCCUGAUAGUGCUAAGGGGGCCUGGAAGUUUGGACUGGGCAGAGCUCAACACAGCGUGGCAAAGUGGCUGUGGCCAGACUGCCUCUCUGGAUUCCUCGUCACUCAGCAGGGCAUCUCUGGGAAAAAUGCC belongs 0.46; to UACGUAGGUGGUUUUCCCCUGAUAGUGCUAAGGGGGCCUGGAAGUUUGGACUGGGCAGAGCUCAACACAGCGUGGCAAAGUGGCUGUGGCUAGACUGCCUCUCUGGAUUCCUCGUCACUCAGCAGGGCAUCCCGGAGAGGAAUGCC, 1.6; to UACGUAGGUGGUCUUCCCCUGAUAGUGCUAAGGGGGCCUGGAAGUUUGGAAUGGGCAGAGCUCAACACAGCGUGGCAAAGUGGCUGUGGCUAGACUGCCUCUCUGGAUUCCUCGUCACUCAGCGGGGCAUCUCUGAGAGAAAUGCC, 0.75.
Under UACGUAGGUGGUUAUCCCCUGAUAGUGCUAAGGGGGCCUGGAAGUUUGGACUGGGCAGGGCUCAACACAGCGUGGCAAAGUGGCUGUGGCUAGACUGCCUCUCUGGAUUCCUGGUCGCUCAGCAGGGCAUCACUGAGAGAAAUGCC stands 0; under UACGUAGGUGGUUUCCCCCUGAUAGUGCUAAGGGGGCCCGGAAGUUUGGACUGGGCAGAGCUCAACACAGCGAGGCAAAGUGGCUGUGGCUAGACUGCCUCUCUGGAUUCCUCGUCACUCAGCAGGGCAUCUCUGAGAGAAAUGCC, 1.02.
As for UACGUAGGUGGUUUUCCCCUGAUAGUGCUAAGGGGGCCUGGAAGUCUGGACUGGGCAGAGCUCAACACAGCGAGGCAAAGUGGCUGUGGCUAGACUGCCUCUCUGGAUUCCUCGUCACUCAGCAGGGCAUCUCUGAGAGAAAUGCU, the self-cleavage came to 2.06.
Under UACGUAGGUGGUUUUCCCCUGAUAGUGCAAAGGGGGCCUGGAAGUUAGGACUGGGCAGAGCUCAACACAGCGUGGCAAAGUGGCUGAGGCUAGACUGCCUCUCUGGAUUCCUCGUCACUCAGCAGGGCAUCUCUGAGAGAAAUGCC stands 0.18; under UACGUAGGUGGUUUUCCCCCGAUAGUGCUAAGGGGGCCUGGAAGUUUGGACUGGGCAGAGCUCAACACAGCGUGGCAAAGUGGCUGUGGCUAGACUGCCUCUCUGGAUUCCUCGUCACUCAGCGGGGCAUCUCUGAGAGAGAUGCC, 1.86; under CACGUAGGUGGUUUUCCCCUGAUAGUGCUAAGGGGGCCAGGAAGUUUGGACUGGGCAGAGCUCAACACAGCGUGGCAAAGUGGCUGUGGCUAGACUGCCUCUCUGGAUUCCUCGUCACUCAGCAGGGCAUCUCUGAGAGAAGUGCC, 1.47.
Under UACGUAGGUGGUUUUCCCCUGAUAGUGUUAAGGGGGCCUGGAAGUUUGGACUGGGCAGAGCUCAACACAGCGUGGCAAAGUGGCUGUGGCUAGACUGCCUCUCUGGAUACCCCGACACUCAGCAGGGCAUCUCUGAGAGAAGUGCC stands 1.19.
Under UACGUAGGCGGUUUUCCCCUGAUAGUGCUAAGGGGGCCUGGAAGCUUGGACUGGGCAGAGCUCAACACAGCGUGGCUAAGUGGCUGUGGCUAGACUGCCUCUCUGGAUUCCUCGUCACUCAGCAGGGCAUCUCUGAGAGAAAUGCC stands 1.23.
Regarding UACGUAGGUGGUUUCCCCCUGAUAGUGCUAAGGGGGCCUGGAAGUUUGGACUGGGCAGAGCUCUACACAGCGUGGCAAAGUGGCUGUGGCUAGACUGCCUCUCUGGAUUCCUCGUCACUCAGCAGGGCAUCUCUGAGAGAAGUGCC, the self-cleavage was found to be 0.58.
To UACGUAGGUGGUUUUCCCCUGAUAGAGCUAAGGGGGCCUGGAAGUUUGGACUGGGCAGAGCUCAACACAGCGUGGCAAAGUGGCUGUGGCUAGACUGCCUCUCUGGAUUCCUCGUCACACGGCAGGGCAUCCCUGAGAGAAAUGCC belongs 1.76.
To UACGUAGGUGGUUUUCCCCUGAUAGUGCUAAGGGGGCCUGGAAGCUUGGACUGGGCAGAGCUCAACACAGCGUGGCAAAGUGGCUGUGGCUAGACUGCCUCUCUGGAUUCCUCGUCACUCAGCAGGGCAUACCUGAGAGAAAUGCC belongs 1.65; to UACGUAGGUGGUUUUCCCCUAAUAGUGCUAAGGGGGCCUGGAAGUUUGGACUGGGCAGAGCUCAACACAGCGUGGCUAAGUGGCUGUGGCUAGACUGCCUCUCUGGAUUCCUCGACACUCAGCAGGGCAUCUCUGGGAGAAAUGCC, 1.27.
Under UACGUAGGUGGUCUCCCCCUGAUAGUGCUAAGGGGGCCUGGAAGCUUGGACUGGGCAGAGCUCAACGCAGCGUGGCAAAGUGGCUGUUGCUAGACUGCCUCUCUGGAUUCCUCGUCACUCAGCAGGGCAUCUCUGAGAGAAAUGCC stands 0.37.
UACGUAGGUGGUUUUCCCCUAAUAGUGCUAAGGGGGCCUGGAAGUUUGGACUGGGCAGAGCUCAACACAGCGUGGCAAAGUGGCUGUGGCUAGGCUGCCUCUCUGGAUUCCUCGUCACUCAGCAGGGCAUCUCUGAGAGGAAUGCC: the self-cleavage is 0.37.
Regarding UACGUAGGUGGUUUUCCCCUGAUAGUGCUAAGGGGGCCUGGAAGUUUGGACUGGGCAGAGCUCAACACAGCGUGGCAAAGUGGCUGUGGCUAGACUGCCUCUCAGGAUUCCUCGUCACUCAGCAGGGCAUCUCUGAGAGUAAUACC, the self-cleavage came to 1.23.
As to UACGUAGGUGGGUUUCCCCUGAUAGUGCUAAGGGGGCCCGGAAGUUUGGACUGGGCAGAGCUCAACACAGCGUGGCAAAGUGGCUGUGGCCAGACUGCCUCUCUGGAUUCCUCGUCACUCAGCAGGGCAUCUCUGGGAGAAAUGCC, the self-cleavage is 0.
To UACGUAGGUGGUUUUCCCCUGAUAGUGCUAAGAGGGCCUGGAAGUUUGGACUGGGCAGAGCUCAACACAGCGUGGCAAAGAGGCUGUGGCUAGACUGCCUCUCUGGAUUCCUCGCCACUCAGCAGGGCAUCUCUGAGAGAAAUGCC belongs 1.76; to UACGUAGGUGGUUUUCCCCUGAUAGUGCUAAGGUGGCCUGGAAGUCUGGACUGGGCAGAGCUCAACACAGCGUGGCAGAGUGGCUGUGGCUAGACUGCCUCCCUGGAUUCCUCGUCACUCAGCAGGGCAUCUCUGAGAGAAGUGCC, 1.97; to UACGUAGGUGGUUCUCCCCUGAUAGUGCUAAGGGGGCCUGGAGGUUUGGACUUGGCAGAGCUCAACACAGCGUGGCAAAGUGGCUGUGGCUAGACUGCCUCUCUGGAUUCCUCGUCACUCAGCAGGGCAUCUCUGAGAGAAAUGCC, 1.59.
As to UACGUAGGUGGUUUUCCCCUGAUAGUGCUAAGGGGGCCUGGAAGUUUGGACUGGGCAGAGCCCAACACAGCGUGGCAAAGUGGCCGUGGCUAGACUGCCUCUCUGGAUUCCUCGUCACUCAGCAGGGCAACUCUGAGAGAAAUGCC, the self-cleavage is 0.09.
For UACGUAGGUGGUUCUCCCUUGAUAGUGCUAAGGGGGCCUGGAAGUUUGGACUGGGCAGGGCUCAACACAGCGUGGCAAAGUGGCUGUGGCUGGACUGCCUCUCUGGAUUCCUCGUCACUCAGCAGGGCGUCUCUGAGAGAAAUGCC, the self-cleavage was determined as 0.51.
Consider UACGUAGGCGGUUUUCCCCUGAUAGCGCUAAGGGGGCCUGGAAGUUUGGACUGGGCAGAGCUCAACACAGCGUGGCAAAGUGGCUGUGGCUAGACCGCCUCUCUGGAUUCCUCGUCACUCAGCAGGGCAUCUCUGAGAGAAAUGCC, for which the self-cleavage came to 0.6.
To UACGUAGGUGGCUUUCCCCUGAUAGUGCUAAGGGGGCCUGGAAGUUUGGACUGGGCAGAGCUCAACACAGCGUGGCAAAGUGGCUGUGGCUAGACUGCCUCUCUGGAUUCCUCGUCACUCAGCAGGGCAUCUCGGAGAGAGAUGCC belongs 0.74.
